Experimental data as given in patent US7563592B2, “Alizarin-based chromogenic substrates, their uses and composition containing same” (Biomerieux, S.A., priority 1999, dated 2009).

Columns and labels:
Design in all cases: key: —: the sign “−” signifies no coloration
[1] = tested on: Escherichia coli 115; experiment: Comparison of glucoside substrates in semi-solid Columbia medium (Example 7)
Description: (§1) To Columbia base, were added, either: • Alizarin-2-β-D-glucoside at 0.05 g/l plus Ammoniacal iron citrate at 0.05 g/l, • Alizarin-1-β-D-glucoside at 0.05 g/l and 0.1 g/l plus, for both concentrations, Ammoniacal iron citrate at 0.05 g/l, • 6-Chloro-3-indolyl-β-D-glucoside at 0.15 g/l without any Ammoniacal iron citrate.
(§2) Petri dishes were prepared using these four media (20 ml of medium per dish).

[2] = tested on: Proteus mirabilis 008; experiment: as above
Description: as §1, §2

[3] = tested on: Staphylococcus epidermidis 024; experiment: as above
Description: as §1, §2

[4] = tested on: Bacillus thuringiensis 072; experiment: β-glucosidase detection in API strip wells (Example 6)
Description: (§3) Into a well of an API (Registered trademark, bioMérieux, France) strip, 3 μl of a mixture of Alizarin-2-β-D-glucoside (0.12 g/l) and Ammoniacal iron citrate (0.05 g/l) were introduced and then dried. A control well containing a final concentration of 0.4 g/l of 6-Chloro-3-indolyl-β-D-glucoside was set up in parallel. Then 50 μl of Columbia base were added to both of these wells which were subsequently inoculated with 100 μl of a bacterial suspension (density=2 McFarland). After 4 and 24 hours of incubation at 37° C., the color generated in the wells was recorded.

[5] = tested on: Listeria seeligeri 080; experiment: as above; settings: 0.4 g/l; 4 H
Description: as §3

[6] = tested on: Staphylococcus aureus 062; experiment: as above
Description: as §3

[7] = 0.05 g/l + iron citrate 0.05 g/l, 18 H
[8] = 0.05 g/l + iron citrate 0.05 g/l, 24 H
[9] = 0.05 g/l + iron citrate 0.05 g/l, 48 H
[10] = 0.1 g/l + iron citrate 0.05 g/l, 18 H
[11] = 0.1 g/l + iron citrate 0.05 g/l, 24 H
[12] = 0.1 g/l + iron citrate 0.05 g/l, 48 H
[13] = 0.15 g/l, no iron citrate, 18 H
[14] = 0.15 g/l, no iron citrate, 24 H
[15] = 0.15 g/l, no iron citrate, 48 H
[16] = 0.12 g/l + iron citrate 0.05 g/l, 4 H

O=C1c2ccccc2C(=O)c2c1ccc(O)c2O[C@@H]1O[C@H](CO)[C@@H](O)[C@H](O)[C@H]1O [1-Alizarin1-β-D-glucoside, Alizarin-1-β-D-glucoside]
—: Color [1, 7] | Intensity [1, 7] | Color [1, 8] | Intensity [1, 8] | Color [1, 9] | Intensity [1, 9] | Color [1, 10] | Intensity [1, 10] | Color [1, 11] | Intensity [1, 11] | Color [1, 12] | Intensity [1, 12] | Color [2, 7] | Intensity [2, 7] | Color [2, 8] | Intensity [2, 8] | Color [2, 9] | Intensity [2, 9] | Color [2, 10] | Intensity [2, 10] | Color [2, 11] | Intensity [2, 11] | Color [2, 12] | Intensity [2, 12] | Color [3, 7] | Intensity [3, 7] | Color [3, 8] | Intensity [3, 8] | Color [3, 9] | Intensity [3, 9] | Color [3, 10] | Intensity [3, 10] | Color [3, 11] | Intensity [3, 11] | Color [3, 12] | Intensity [3, 12]

OC[C@H]1O[C@@H](Oc2c[nH]c3cc(Cl)ccc23)[C@H](O)[C@@H](O)[C@@H]1O [6-Chloro-3-indolyl-β-D-glucoside, reference compound]
—: Color observed ([4]; 0.4 g/l, 4 H) | Color observed ([4]; 0.4 g/l, 24 H) | Color observed [5] | Color observed ([6]; 0.4 g/l, 4 H) | Color observed ([6]; 0.4 g/l, 24 H) | Color [1, 13] | Intensity [1, 13] | Color [1, 14] | Intensity [1, 14] | Color [1, 15] | Intensity [1, 15] | Color [2, 13] | Intensity [2, 13] | Color [2, 14] | Intensity [2, 14] | Color [2, 15] | Intensity [2, 15] | Color [3, 13] | Intensity [3, 13] | Color [3, 14] | Intensity [3, 14] | Color [3, 15] | Intensity [3, 15]

O=C1c2ccccc2C(=O)c2c1ccc(O[C@@H]1O[C@H](CO)[C@@H](O)[C@H](O)[C@H]1O)c2O [Alizarin-2-β-D-glucoside]
—: Color observed [4, 16] | Color observed [6, 16] | Color observed ([6]; 0.12 g/l + iron citrate 0.05 g/l, 24 H) | Color [1, 7] | Intensity [1, 7] | Color [1, 8] | Intensity [1, 8] | Color [1, 9] | Intensity [1, 9] | Color [2, 7] | Intensity [2, 7] | Color [2, 8] | Intensity [2, 8] | Color [2, 9] | Intensity [2, 9] | Color [3, 7] | Intensity [3, 7] | Color [3, 8] | Intensity [3, 8] | Color [3, 9] | Intensity [3, 9]
